Source: the supplement of paper PMC11880418
Structures can show the parent of a compound that is named as a salt. The list shows a part of the results. The data scatter; read single values as rough.

Tests used:
Assay in all cases: ALDHbr (CSC) cell proportion score relative to DMSO vehicle (ratio to DMSO); breast (SUM159) / gastric (MKN45) / pancreatic (PANC1) / colon cancer lines; ALDHbr cells have high ALDH activity and are rich in cancer stem cells (CSC); higher = more CSC (ALDHbr) cells remaining
Details in all cases: 10 µM; 72 h
MKN45 = test system: MKN45
PANC1 = test system: PANC1
SUM159 = test system: SUM159
T84 = test system: T84
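Also: High-content imaging of ALDEFLUOR-stained cells with Hoechst-labelled nuclei in 384-well plates, triplicate wells, scored as Z-score against 0.1% DMSO vehicle, negative meaning fewer ALDHbr cells.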

Row | SMILES | ALDHbr (MKN45) | ALDHbr (PANC1) | ALDHbr (SUM159) | ALDHbr (T84)
1 | CN(C(=O)C(Cl)Cl)c1ccc(OC(=O)c2ccco2)cc1 [Diloxanide furoate] | 0.0483 | 0.401 | 0.118 | 0.522
2 | CC1CCc2c(N3CCC(O)CC3)c(F)cc3c(=O)c(C(=O)O)cn1c23 (stereo unspecified) [Nadifloxacin] | 1.01 | 0.811 | 0.966 | 0.952
3 | Cc1onc(-c2ccccc2Cl)c1C(=O)N[C@@H]1C(=O)N2[C@@H]1SC(C)(C)[C@@H]2C(=O)O [Cloxacillin sodium salt] | 1.07 | 0.875 | 1.05 | 0.87
4 | CCn1cc(C(=O)O)c(=O)c2cc(F)c(N3CCNC(C)C3)c(F)c21 (stereo unspecified) [Lomefloxacin hydrochloride] | 1.1 | 0.863 | 1.12 | 1.07
5 | CC(C)C(=O)OCC(=O)[C@@]12O[C@H](C3CCCCC3)O[C@@H]1C[C@H]1[C@@H]3CCC4=CC(=O)C=C[C@]4(C)[C@H]3[C@@H](O)C[C@@]12C [Ciclesonide] | 0.37 | 0.852 | 0.394 | 0.466
6 | CCN(CC)C(=O)Nc1ccc(OCC(O)CNC(C)(C)C)c(C(C)=O)c1 (stereo unspecified) [Celiprolol hydrochloride] | 0.957 | 0.873 | 1.68 | 1.14
7 | CCC(=O)OCC(=O)[C@@]1(OC(=O)CC)[C@@H](C)C[C@H]2[C@@H]3CCC4=CC(=O)C=C[C@]4(C)[C@@]3(Cl)[C@@H](O)C[C@@]21C [Beclomethasone dipropionate] | 0.977 | 0.632 | 0.89 | 1.02
8 | O=C(O)Cc1ccc(-c2ccccc2)cc1 [Felbinac] | 0.914 | 1.01 | 0.858 | 0.984
9 | CNC1(C)C2CCC(C2)C1(C)C (stereo unspecified) [Mecamylamine hydrochloride] | 1.23 | 1.01 | 1.23 | 1.19
10 | CCCN(CCC)CCc1cccc2c1CC(=O)N2 [Ropinirole hydrochloride] | 1.06 | 0.804 | 1.05 | 0.972
11 | OCCOCCN1CCN(C2=Nc3ccccc3Sc3ccccc32)CC1 [Quetiapine hemifumarate] | 0.79 | 0.763 | 0.854 | 0.916
12 | Cc1ccc(C(=O)c2cc(O)c(O)c([N+](=O)[O-])c2)cc1 [Tolcapone] | 0.819 | 0.968 | 0.987 | 0.877
13 | O=S(=O)(O)c1cc(O)ccc1O [Ethamsylate] | 1.03 | 0.989 | 0.902 | 0.904
14 | Nc1ccc(C(=O)O)c(O)c1 [4-aminosalicylic acid] | 1.09 | 0.96 | 0.877 | 0.925
15 | C/C(=C(\CCOP(=O)(O)O)SC(=O)c1ccccc1)N(C=O)Cc1cnc(C)nc1N [Benfotiamine] | 1.03 | 0.946 | 0.961 | 0.887
16 | O=C(O)CN(CCN(CC(=O)O)CC(=O)O)CCN(CC(=O)O)CC(=O)O [Pentetic acid] | 0.755 | 0.766 | 1.05 | 1.04
17 | CN(C)CCC=C1c2ccccc2COc2ccccc21 [Doxepin hydrochloride] | 1.05 | 0.784 | 0.697 | 0.888
18 | CN1C2CCCC1CC(NC(=O)c1nn(C)c3ccccc13)C2 (stereo unspecified) [Granisetron] | 1.21 | 0.949 | 1.03 | 0.886
19 | CC1(C)O[C@@H]2C[C@H]3[C@@H]4CCC5=CC(=O)CC[C@]5(C)[C@@]4(F)[C@@H](O)C[C@]3(C)[C@]2(C(=O)CCl)O1 [Halcinonide] | 0.8 | 0.541 | 1.35 | 0.955
20 | N#Cc1cc(NC(=O)C(=O)O)c(Cl)c(NC(=O)C(=O)O)c1 [Lodoxamide] | 1.06 | 0.987 | 0.913 | 0.979

Row | SMILES | ALDHbr (MKN45) | ALDHbr (PANC1) | ALDHbr (SUM159) | ALDHbr (T84)
21 | CCC1NC(=O)c2cc(S(N)(=O)=O)c(Cl)cc2N1 (stereo unspecified) [Quinethazone] | 0.913 | 0.957 | 1.02 | 0.919
22 | CC[C@H](C)C(=O)O[C@H]1CCC=C2C=C[C@H](C)[C@H](CC[C@@H]3C[C@@H](O)CC(=O)O3)[C@H]21 [Mevastatin] | 0.557 | 1.07 | 1.82 | 0.772
23 | COc1cc2ncnc(Nc3ccc(F)c(Cl)c3)c2cc1OCCCN1CCOCC1 [Gefitinib] | 0.653 | 1.38 | 0.608 | 0.281
24 | Cn1cnc([N+](=O)[O-])c1Sc1ncnc2[nH]cnc12 [Azathioprine] | 0.603 | 0.715 | 0.837 | 0.759
25 | Nc1ccc(/N=N/c2ccccc2)c(N)n1 [Phenazopyridine hydrochloride] | 0.68 | 0.329 | 1.62 | 0.877
26 | CC(=O)Nc1ccc(CC(=O)O)cc1 [Actarit] | 1.25 | 0.943 | 0.794 | 0.967
27 | O=C(CCCCC(=O)Nc1c(I)cc(I)c(C(=O)O)c1I)Nc1c(I)cc(I)c(C(=O)O)c1I [Iodipamide] | 1.02 | 0.918 | 1.09 | 0.783
28 | COc1ccc(C(=O)NCc2cccnc2)cc1C(=O)NCc1cccnc1 [Picotamide monohydrate] | 0.972 | 0.834 | 0.899 | 0.917
29 | O=P(O)(O)C(O)(Cc1cccnc1)P(=O)(O)O [Risedronic acid monohydrate] | 1.1 | 0.941 | 0.975 | 1.07
30 | CN(C)CCN(Cc1cccs1)c1ccccn1 [Methapyrilene hydrochloride] | 1.1 | 0.926 | 1.03 | 1.02
31 | Oc1ccc(OCc2ccccc2)cc1 [Monobenzone] | 0.111 | 0.959 | 2.52 | 0.975
32 | NC[C@H]1CC[C@H](C(=O)O)CC1 [Tranexamic acid] | 0.909 | 0.734 | 1.01 | 1.04
33 | CCc1c2c(nc3ccc(OC(=O)N4CCC(N5CCCCC5)CC4)cc13)-c1cc3c(c(=O)n1C2)COC(=O)[C@]3(O)CC [Irinotecan hydrochloride trihydrate] | 0.167 | 1.97 | 1.39 | 0.616
34 | CCNC(=O)CCC/C=C\C[C@@H]1[C@@H](/C=C/[C@@H](O)CCc2ccccc2)[C@H](O)C[C@@H]1O [Bimatoprost] | 0.945 | 0.772 | 1.21 | 1.06
35 | C[N+]1(C)CCC(=C(c2ccccc2)c2ccccc2)CC1 [Diphemanil methylsulfate] | 1.12 | 0.923 | 0.835 | 0.866
36 | CCCNC(C)(C)COC(=O)c1ccccc1 [Meprylcaine hydrochloride] | 1.15 | 1.03 | 1.05 | 1
37 | Nc1nc(O)c2ncn(CCC(CO)CO)c2n1 [Penciclovir] | 1.14 | 1 | 1.36 | 1.04
38 | c1ccc(CN(CC2=NCCN2)c2ccccc2)cc1 [Antazoline hydrochloride] | 1.18 | 0.894 | 0.815 | 0.967
39 | CC#C[C@]1(O)CC[C@H]2[C@@H]3CCC4=CC(=O)CCC4=C3[C@@H](c3ccc(N(C)C)cc3)C[C@@]21C [Mifepristone] | 0.621 | 0.412 | 0.213 | 0.504
40 | CNCCC=C1c2ccccc2CCc2ccccc21 [Nortriptyline hydrochloride] | 0.935 | 0.867 | 0.563 | 0.572

Row | SMILES | ALDHbr (MKN45) | ALDHbr (PANC1) | ALDHbr (SUM159) | ALDHbr (T84)
41 | COc1ccc(OC)c(C(O)CNC(=O)CN)c1 (stereo unspecified) [Midodrine hydrochloride] | 0.739 | 0.748 | 0.883 | 0.774
42 | O=C(N[C@H](CO)[C@H](O)c1ccc([N+](=O)[O-])cc1)C(Cl)Cl [Chloramphenicol] | 0.568 | 0.472 | 1.07 | 0.738
43 | Oc1ncnc2[nH]ncc12 [Allopurinol] | 0.939 | 0.933 | 1.1 | 0.844
44 | CC(C)Cn1cnc2c(N)nc3ccccc3c21 [Imiquimod] | 1.23 | 0.981 | 1.22 | 0.906
45 | COc1ccc(CC(C)NCC(O)c2ccc(O)c(NC=O)c2)cc1 (stereo unspecified) [Formoterol fumarate] | 1.61 | 0.819 | 1.65 | 1
46 | Cn1c(=O)c2c(ncn2CC(O)CO)n(C)c1=O (stereo unspecified) [Diprophylline] | 0.893 | 0.905 | 1.22 | 0.926
47 | C#CCN[C@@H]1CCc2ccccc21 [Rasagiline] | 0.849 | 0.928 | 0.779 | 0.846
48 | CCN1CCC[C@H]1CNC(=O)c1c(OC)ccc(Br)c1OC [Remoxipride Hydrochloride] | 1.03 | 1.11 | 0.716 | 0.991
49 | O=C1CCc2cc(OCCCCc3nnnn3C3CCCCC3)ccc2N1 [Cilostazol] | 0.565 | 0.147 | 1.36 | 0.956
50 | CN/C(=N\CCSCc1nc[nH]c1C)NC#N [Cimetidine] | 0.867 | 0.846 | 1.06 | 0.841
51 | COc1cc(NS(=O)(=O)c2ccc(N)cc2)ncn1 [Sulfamonomethoxine] | 0.766 | 1.01 | 0.983 | 0.971
52 | COCCc1ccc(OCC(O)CNC(C)C)cc1 (racemic) [Metoprolol-(+,-) (+)-tartrate salt] | 0.9 | 0.903 | 0.976 | 0.989
53 | CCOC(=O)n1ccn(C)c1=S [Carbimazole] | 0.963 | 1.04 | 1.04 | 0.931
54 | Cc1ccc(C(=O)c2ccc(CC(=O)O)n2C)cc1 [Tolmetin sodium salt dihydrate] | 0.922 | 0.891 | 0.992 | 0.893
55 | CCCCS(=O)(=O)N[C@@H](Cc1ccc(OCCCCC2CCNCC2)cc1)C(=O)O [Tirofiban hydrochloride] | 1.11 | 1 | 1.25 | 0.865
56 | CCN(CC)CCNC(=O)COc1ccc(OC)cc1 [Mefexamide hydrochloride] | 0.942 | 0.785 | 0.948 | 0.957
57 | O=C(OCC(O)CO)c1ccccc1Nc1ccnc2cc(Cl)ccc12 (stereo unspecified) [Glafenine hydrochloride] | 1.18 | 0.754 | 1.41 | 0.793
58 | CC(=O)OCC(=O)NCCCOc1cccc(CN2CCCCC2)c1 [Roxatidine Acetate hydrochloride] | 1.12 | 0.893 | 1.09 | 0.974
59 | CC(C)(C)NCC(O)COc1cccc2c1CCC(=O)N2 (stereo unspecified) [Carteolol hydrochloride] | 1.14 | 0.839 | 1.83 | 0.922
